{"source": "PubChem BioAssay AID1030", "about": "(National Center for Advancing Translational Sciences (NCATS), 2008)", "note": "Screen size: about 220,000 compounds; about 16,000 (7.3%) were called active. This list was built around the results that the source calls inconclusive (neither active nor inactive); the mix of calls is not that of the screen. The call rests on the fitted dose curve; in most records, active means well fitted inhibition curve with a large enough effect (not every such curve was filed as active); inconclusive means small, poorly fitted or top-dose-only effect, or another doubt; inactive means no such curve, though single readings can be large or run the other way. Potencies of inconclusive entries are left out as doubtful fits. Potency means the concentration at half of the fitted maximal effect; tags describe the fitted curve by direction and shape."}
{"target": "Aldehyde dehydrogenase 1A1 (Homo sapiens) (UniProt P00352)", "sequence (P00352 whole entry, looked up)": "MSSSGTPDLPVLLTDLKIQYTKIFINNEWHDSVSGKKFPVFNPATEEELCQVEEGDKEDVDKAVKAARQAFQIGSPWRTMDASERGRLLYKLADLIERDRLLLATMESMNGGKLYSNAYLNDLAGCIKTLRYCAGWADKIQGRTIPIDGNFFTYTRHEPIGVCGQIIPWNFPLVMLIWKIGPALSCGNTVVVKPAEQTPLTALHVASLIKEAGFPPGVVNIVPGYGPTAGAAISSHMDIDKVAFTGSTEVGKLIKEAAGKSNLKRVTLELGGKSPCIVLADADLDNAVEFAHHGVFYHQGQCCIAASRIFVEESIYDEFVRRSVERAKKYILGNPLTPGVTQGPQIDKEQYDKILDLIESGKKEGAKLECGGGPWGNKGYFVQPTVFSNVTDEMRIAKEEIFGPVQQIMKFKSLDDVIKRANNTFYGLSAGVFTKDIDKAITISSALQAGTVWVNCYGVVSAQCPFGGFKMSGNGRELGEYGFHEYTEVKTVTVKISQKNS", "assay": "qHTS Assay for Inhibitors of Aldehyde Dehydrogenase 1 (ALDH1A1);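 on activity, negative = inhibition: plate controls were no enzyme wells and a reference inhibitor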", "conditions": "Purified ALDH1A1, NADH fluorescence, propionaldehyde substrate; series mostly up to 75.3 µM; activity, negative = inhibition: at the top concentration"}
{"compound": "O=C1c2cccc3c([N+](=O)[O-])c(O)cc(c23)C(=O)N1Nc1ccccc1", "Potency": "inconclusive [inhibitor, single point]"}
{"compound": "CC(=O)c1sc(NC(=O)c2cccnc2Cl)nc1C", "Potency": "inconclusive [inhibitor, single point]"}
{"compound": "CN(C)c1ccc(-c2nc(N(C)C)c3ccccc3n2)cc1", "Potency": "inconclusive [inhibitor, single point]"}
{"compound": "CCc1ccc(NC(=O)Nc2cccc(OC)c2)cc1", "activity, negative = inhibition": "inactive: 3.92%"}
{"compound": "O=C(CCN1C(=O)C2C3CCC(C3)C2C1=O)OCC(=O)c1cccc([N+](=O)[O-])c1", "note": "(configuration not stated)", "Potency": "inconclusive [inhibitor, single point]"}
{"compound": "CC1CCN(C(=O)c2ccc(SCc3ccccc3F)c([N+](=O)[O-])c2)CC1", "Potency": "inconclusive [inhibitor, single point]"}
{"compound": "CC(=O)N1CC(c2ccccc2)C(c2ccc(Cl)cc2)=N1", "note": "(configuration not stated)", "Potency": "inconclusive [inhibitor, single point]"}
{"compound": "COc1cccc(-n2nc(-c3ccnn3-c3ccccc3)c(=O)n(C)c2=O)c1", "Potency": "inconclusive [inhibitor, partial curve]"}
{"compound": "CC(NC(=O)c1cccs1)c1ccc2c(c1)OCO2", "note": "(configuration not stated)", "activity, negative = inhibition": "inactive: 8.96%"}
{"compound": "CCOC(=O)COc1c(OC)cc(Cl)cc1C1Nc2ccccc2C(=O)N1c1ccc(F)cc1", "note": "(configuration not stated)", "Potency": "inconclusive [inhibitor, single point]"}
{"compound": "O=C(O)CCC(=O)N1CCc2cc(S(=O)(=O)N3CC=C(c4ccccc4)CC3)ccc21", "Potency": "inconclusive [inhibitor, single point]"}
{"compound": "CC1CC1c1ccc(/C=C(\\C#N)C(=O)Nc2ccc(Cl)cc2)o1", "note": "(configuration not stated)", "Potency": "inconclusive [inhibitor, partial curve]"}
{"compound": "Cc1cccc(OCc2nnc(SCC(=O)N3CC(=O)Nc4ccccc43)o2)c1", "activity, negative = inhibition": "inactive: 5.16%"}
{"compound": "CCOC(=O)C1=C(C)N=c2s/c(=C\\c3cc(OC)c(OC)c(OC)c3)c(=O)n2C1/C=C/c1ccccc1", "note": "(configuration not stated)", "activity, negative = inhibition": "inactive: -9.02%"}
{"compound": "COC(=O)c1ccc(C(=O)OC)c(NC(=O)CN2CCCCC2)c1", "Potency": "inconclusive [inhibitor, single point]"}
{"compound": "Cc1cccc(C)c1-n1cccc1/C=C1\\SC(=S)N(c2cccc(C(=O)O)c2)C1=O", "Potency": "inconclusive [inhibitor, partial curve, poor fit]"}
{"compound": "COC(=O)c1cc2c(C)nn(-c3ccccc3)c2s1", "Potency": "inconclusive [inhibitor, single point]"}
{"compound": "COc1ccc(C(=O)/C(=C/O)N=Nc2ccc(F)cc2)cc1", "Potency": "active: 3.98 µM"}
{"compound": "CCOc1cc(C(=O)Nc2ccc3c4c(cccc24)C(=O)N3CC)cc(OCC)c1OCC", "Potency": "inconclusive [inhibitor, full curve]"}
{"compound": "Cc1ccc2nc(C)cc(C(=O)OCC(=O)Nc3c(C)n(C)n(-c4ccccc4)c3=O)c2c1", "activity, negative = inhibition": "inactive: 6.7%"}
{"compound": "Cc1cnc(C(=O)Nc2ccc(C)c(S(=O)(=O)N(C)C)c2)cn1", "Potency": "inconclusive [inhibitor, full curve]"}
{"compound": "O=C(Cn1c2ccccc2c(=O)c2ccccc21)Nc1cccc(F)c1", "Potency": "inconclusive [inhibitor, single point]"}
{"compound": "COCCCn1nnnc1SCC(=O)N1CCN(C(=O)c2ccco2)CC1", "Potency": "inconclusive [inhibitor, single point]"}
{"compound": "CC1CC(C)CN(C(=O)COC(=O)c2cc3ccccc3cc2O)C1", "note": "(configuration not stated)", "activity, negative = inhibition": "inactive: -6.48%"}
{"compound": "Cc1ccc(CSc2nc3ccccc3cc2C=O)cc1", "Potency": "inconclusive [inhibitor, partial curve]"}
{"compound": "N#CCSc1nc2cc(C(=O)N3CCCC3)ccc2c(=O)n1Cc1ccccc1", "Potency": "active: 2.82 µM"}
{"compound": "CC(C)CNS(=O)(=O)c1ccc(CCC(=O)N2CCCC2)cc1", "activity, negative = inhibition": "inactive: -12.7%"}
{"compound": "CNC(=S)N1N=C(c2ccc(C)cc2)CC1c1ccc(N(C)C)cc1", "note": "(configuration not stated)", "Potency": "active: 25.1 µM"}
{"compound": "CCC(=O)N(Cc1cc(=O)[nH]c2ccccc12)c1ccc(C)cc1", "activity, negative = inhibition": "inactive: -12.1%"}
{"compound": "O=[N+]([O-])c1cc(/C=N\\Nc2nccs2)ccc1O", "Potency": "inconclusive [inhibitor, partial curve]"}
{"compound": "C=C(C)C(N)=O", "activity, negative = inhibition": "inactive: 10.3%"}
{"compound": "Nn1c(-c2ccccc2)nc2ccccc2c1=O", "activity, negative = inhibition": "inactive: 13.2%"}
{"compound": "O=C(Nc1ccc2c(c1)OCO2)C1CCN(C(=O)CSc2ncnc3ccccc23)CC1", "Potency": "inconclusive [inhibitor, partial curve]"}
{"compound": "Cc1ccc(NCCC(=O)c2cccs2)cc1C", "Potency": "active: 1.58 µM"}
{"compound": "COc1cc(OC)c(C(=O)Nc2ccc(S(=O)(=O)Nc3ncccn3)cc2)cc1OC", "activity, negative = inhibition": "inactive: 0.152%"}
{"compound": "FC(F)Sc1ccc(NC(=S)NC2CCCC2)cc1", "activity, negative = inhibition": "inactive: 7.28%"}
{"compound": "O=C(OCc1cc2ccccc2[nH]c1=O)C1CCCCC1", "Potency": "active: 20 µM"}
{"compound": "COc1ccc(CC(NC(C)=O)C(=O)NC2CCN(c3nc(C)cc(C)c3C#N)CC2)cc1OC", "note": "(configuration not stated)", "Potency": "inconclusive [inhibitor, partial curve]"}
{"compound": "COc1ccccc1CN1CCC2(CC1)CCN(C(=O)c1ccco1)CC2", "Potency": "inconclusive [inhibitor, single point]"}
{"compound": "Cc1noc(C)c1C(=O)N1CCCc2ccccc21", "Potency": "active: 25.1 µM"}
{"compound": "c1csc(CSc2nc3ccccc3s2)c1", "Potency": "inconclusive [inhibitor, single point]"}
{"compound": "CC(=O)c1ccc(-n2c(C)ccc2-c2ccccc2)cc1", "Potency": "inconclusive [inhibitor, single point]"}
{"compound": "Cc1c(NC(=O)/C=C/c2cn(-c3ccccc3)nc2-c2ccc(F)cc2)c(=O)n(-c2ccccc2)n1C", "Potency": "inconclusive [inhibitor, partial curve]"}
{"compound": "CCCCNC(=O)CCCCCNS(=O)(=O)c1ccc(OC)cc1", "activity, negative = inhibition": "inactive: -12.4%"}
{"compound": "CC1CCN(C(=S)c2cccc(O)c2)CC1", "Potency": "active: 31.6 µM"}
{"compound": "CCOC(=O)c1c(-c2ccco2)csc1NC(=O)CSc1nnc(N)s1", "Potency": "inconclusive [inhibitor, single point]"}
{"compound": "CCOC(=O)C1(S(=O)(=O)c2ccccc2)CCN(Cc2ccc(Cl)cc2)CC1", "Potency": "inconclusive [inhibitor, single point]"}
